Data taken from paper PMC12136788.
This is one part of the list.

B1: chr1:149903635:149903737:-|3pUTR|ENSG00000159164|unk|total|mutant (ssRNA)
RNA: GGGAGUUCUACAGUCCGACGAUCGGCUGCUUUCUUUGGUGCCCUCCCCUCACCCCACUGCCGCUGUGACGUGUUGCCGUUUUCCGAUGUUUGUAAAAUGUUUAAAAAAAUGUUAAAAGGAAAAAAGUGAAAAUAACAAAAAAGCAACAGAGGAUUGAGCAUCA
B2: chr7:152649051:152649153:-|CDS|ENSG00000196584|unk|total|mutant (ssRNA)
RNA: GGGAGUUCUACAGUCCGACGAUCAGCUCUGAAGAAAUAAUCAAAUACUGCCUGGGAAGAUUUUUUUUGGUGUACUGCAGCCGCCGCACCCACUUACUUCUUACACUUUACUCACCCGAAAGUAUGUUUUGCCGUCACCCAUCUCAACAGAGGAUUGAGCAUCA
B3: chr6:109481629:109481730:-|CDS|ENSG00000112365|unk|total|mutant (ssRNA)
RNA: GGGAGUUCUACAGUCCGACGAUCGCUCAGUUCUUAAAAGUCUAUGACCUGGUAAAGGCUUACACAGACUUCCAAAAUAAUCACCGCUCCCCAAAGCCAACAACUUUGAACACUGCUGGUGCCCCAGUGGUUGUUAUCUCUAAUCAACAGAGGAUUGAGCAUCA
B4: chr22:40861067:40861994:-|CDS|ENSG00000172404|control|control|control (ssRNA)
RNA: GGGAGUUCUACAGUCCGACGAUCGAAAGUGAUCAAGAAAGAGAAGCUGAAGAUAAUGGAGAGUUGACAUUUUUUCUUGUAAAUAGUGUGGCCAAUGAAGAGGGCUUUGCAAAAGAAUGCAGCUGGAGAACACAGUCAUUCAACCAACAGAGGAUUGAGCAUCA
B5: ENSG00000124766:be:win_601|CDS|ENSG00000124766|bound_else_gene|NA|bound_elsewhere_windowed (ssRNA)
RNA: GGGAGUUCUACAGUCCGACGAUCUCCAAAGUGGCGGGCGGCGCGGGCGGUGGGGUUAGCAAACCGCACGCCAAGCUCAUCCUGGCAGGCGGCGGCGGCGGCGGGAAAGCAGCGGCUGCCGCCGCCGCCUCCUUCGCCGCCGAACAACAGAGGAUUGAGCAUCA
B6: chr1:151249111:151249212:+|3pUTR|ENSG00000143398|unk|FALSE|unique (ssRNA)
RNA: GGGAGUUCUACAGUCCGACGAUCGCAGAUUGUUGAAUUCCUGUUCUAUCCCUUCUCUAUCCCACCCUGCCUUGAUAAUAUGUUAGCCCAUACCCCAAAUAACUGUCUAUAUUAGACACCCCCAGCCAGUUUCUGGCUGCCUGUCAACAGAGGAUUGAGCAUCA
B7: chr6:145382534:145384023:-|three_prime_utr|ENSG00000112425|control|control|control (ssRNA)
RNA: GGGAGUUCUACAGUCCGACGAUCUCAACAUGAUUUAACAGAUCUAUAUGUUAAAGGAGAAAAAGAUAUGUGGAUGCUAUCAAUAGUAGCUGAAAAGCAUUUUCAGAAAUCUGUAAGUAGAGGAAAUGUAUUCAUAUGUUUCUACAACAGAGGAUUGAGCAUCA
B8: chr17:29262523:29262623:-|3pUTR|ENSG00000108256|msi1_unk|FALSE|overlapping (ssRNA)
RNA: GGGAGUUCUACAGUCCGACGAUCACUUUGACUGAUAUUGUAAUUUUCAAAUGUAUAAUAUGUUUACAGAUGUGCCCUGCAUUUAGUCUGCCUUGUUCCUAUUUUGAUUUUUGUUGAGUCUCCUGCCUGCUUGCCAAAAGCUAGCAACAGAGGAUUGAGCAUCA
B9: chr4:165277806:165277983:-|three_prime_utr|ENSG00000229894|control|control|control (ssRNA)
RNA: GGGAGUUCUACAGUCCGACGAUCCUUUUUACAUAAUGAAAGAACAACCCAGCAAUUGUCUCUUAAUGCGAUGACACUAUUCAUAGACUUUGAUUUUAUUUAUAAGCCACUUGCUGCGUGACCCUCCAAGUAGACCUGUGGCUUCAACAGAGGAUUGAGCAUCA
B10: chr16:46799225:46799326:-|3pUTR|ENSG00000155330|unk|total|mutant (ssRNA)
RNA: GGGAGUUCUACAGUCCGACGAUCUUACAUUUGGAAGUACAUGUAUAUAUGUUUAUAUAUUUUUAUUCUCAGGAUCUAUUUUCCCGGGAACUAUUUUUUUAAAUUAUUCUUUUGUGCUGCCUUAACCCAUUUAUUACCGUUUGACAACAGAGGAUUGAGCAUCA
B11: chr12:6347307:6347408:-|3pUTR|ENSG00000111319|msi1|FALSE|unique (ssRNA)
RNA: GGGAGUUCUACAGUCCGACGAUCGUCUGCUCCUCCUCUUGAACUUGGGUGGGAAACCCCACCCAAAAGCCCCCUUUGUUACUUAGGCAAUUCCCCUUCCCUGACUCCCGAGGGCUAGGGCUAGAGCAGACCCGGGUAAGUAAACAACAGAGGAUUGAGCAUCA
B12: chr14:92163265:92163366:+|3pUTR|ENSG00000165934|msi1|FALSE|bound_elsewhere (ssRNA)
RNA: GGGAGUUCUACAGUCCGACGAUCUAAUAUCAGACUCGAAUUACUAUUUCAUUCUAUUUCAAAUGCUUAUAAAGCUACUAUUGUAGAUUAUAGUGUUAAUGCAAAGUUUACAGACUUUUGAUAUGGAAAACCAGAUAAAACAAUCAACAGAGGAUUGAGCAUCA
B13: ENSG00000198589:be:win_3351|CDS|ENSG00000198589|bound_else_gene|NA|bound_elsewhere_windowed (ssRNA)
RNA: GGGAGUUCUACAGUCCGACGAUCCAGUCCUACUGAGGAAGCUAAUCUACCCACAGAGCUCCAAGAUAACAGUUUGUCUCCAGCUGCAUCUGAAGCCGGUGAAAAACUGGACAUGUUUGGUAAUGAUGACAAAUUAAUAUUUCACAACAGAGGAUUGAGCAUCA
B14: chr7:38725943:38726055:-|3pUTR|ENSG00000006715|unk|FALSE|unique (ssRNA)
RNA: GGGAGUUCUACAGUCCGACGAUCGAAAUUUUGGGGUCCAUAGUGAAUAUUUUGUUAUUUAUUUGUUUGGCUCAUUCUUUAUAUAGUAAUGGAAACAUAAGUCUAGGAGUUAGAAAUGAAUUUUUUAGACCUUAGUAAAACCAUCAACAGAGGAUUGAGCAUCA
B15: chr12:54350855:54350965:+|3pUTR|ENSG00000111481|msi1|total|mutant (ssRNA)
RNA: GGGAGUUCUACAGUCCGACGAUCUUGCCCUGACAUUUUUGUAAAUUCUGUGCCCUUUGCUGCCGCUACACUUCAGAUUAAAGCCGGAGAAAGAAUGUGCUGAGUGUUUUCCUCCCUUUGCCUCUACCUGGCCCUCAUCCCAACCAACAGAGGAUUGAGCAUCA
B16: chr17:5489330:5489445:+|CDS|ENSG00000167842|unk|total|mutant (ssRNA)
RNA: GGGAGUUCUACAGUCCGACGAUCACGUUGACUUUCUUUGAUGAGCUUCAUAAUGUUGGCAGAGAUCAUGGGACCCGUGAUUUCCGGGAGAGUUCCGUAUCCCUGGUUCAGAACUCCAGAAAACUACAGAACAUCCGAGACAAUCAACAGAGGAUUGAGCAUCA
B17: chrX:135156539:135157311:-|three_prime_utr|ENSG00000169551|control|control|control (ssRNA)
RNA: GGGAGUUCUACAGUCCGACGAUCUUUAUUCUGUUUAUCUUUCCUUUUAUGAGCAGUAAAGGGGCUGGUUUAACUUAAAAGGUUAGCUUAGUAAGCCUAAAUAGUAUUUUAUAUAUGACUUUUCUGGCAAAUCUAAUUGAGACACAACAGAGGAUUGAGCAUCA
B18: chr7:128862928:128863052:+|CDS|ENSG00000128524|unk|FALSE|unique (ssRNA)
RNA: GGGAGUUCUACAGUCCGACGAUCUAAGCUCAUCGCAGUGAUCGGAGACGAGGACACGGUGACUGGUUUCCUGCUGGGCGGCAUAGGGGAGCUUAACAAGAACCGCCAUCCCAAUUUCCUGGUGGUGGAGAAGGAUACAACCAUCAACAGAGGAUUGAGCAUCA
B19: chr9:19286831:19286940:+|CDS|ENSG00000137145|unk|total|mutant (ssRNA)
RNA: GGGAGUUCUACAGUCCGACGAUCAUUCCAGGAUGUGAAGUGAUCCCCGCCACACCCUAUGGUCGCUGUGCCAAUGUCAACAACCGUUCAACUACUUCACAAAGAAUCUUUAUCACUUAUCGAAGGGCUCCUCCAGUUCGACCCCAACAGAGGAUUGAGCAUCA
B20: chr5:95604386:95604487:+|3pUTR|ENSG00000164291|msi1|total|mutant (ssRNA)
RNA: GGGAGUUCUACAGUCCGACGAUCCCUGCCAUCCAGUUCCCCCUCCAAGAAGCAAGUACCGAAACCACCUGCUUACGCAUUUUCCGAGAUUGGCCACAAAUUUAUAAACAAAUGUAUAUAUUCCUUUCCCCCUACACAAACGGUCAACAGAGGAUUGAGCAUCA
B21: chr4:143221337:143221438:+|3pUTR|ENSG00000170185|unk|FALSE|unique (ssRNA)
RNA: GGGAGUUCUACAGUCCGACGAUCUUGAAAGGUAAUAGAUUUUCCAGAAGUAAAAUCUGAUGGUUCUAAAUCAAUCAAUGUGAUAGUUCAUUUUUAACUCUUAGAAGAAUUCAGAGGAAAUUAACCCAGCUAAGUAAAAAAUCUCAACAGAGGAUUGAGCAUCA
B22: ENSG00000198589:be:win_2051|CDS|ENSG00000198589|bound_else_gene|NA|bound_elsewhere_windowed (ssRNA)
RNA: GGGAGUUCUACAGUCCGACGAUCUACUGACUAUGCAUGAGGAUGACAAUCUAAUGGAUGUCCUACAGCUGCUUGUUGCAUUAAUGUCAGAACACCCUAACUCUAUGAUUCCUGCUUUUGACCAAAGGAAUGGGUUACGUGUUACAACAGAGGAUUGAGCAUCA

Target: MSI1 full-length (mouse, UniProt Q61474 1-362)
Experiment: nsRBNS (natural sequence RNA bind-n-seq); RBNS binding buffer (assumed for nsRBNS): 25 mM Tris pH 7.5, 150 mM KCl, 3 mM MgCl2, 0.01% Triton X-100, 500 ug/ml BSA, 20 U/ml SUPERase-In, 4 C; UNK is unkempt and MSI1 is Musashi-1; names of the RNAs are library labels; protein concentration not given here; high values mean tight binding

Chain of UniProt Q61474 (Q61474 whole entry): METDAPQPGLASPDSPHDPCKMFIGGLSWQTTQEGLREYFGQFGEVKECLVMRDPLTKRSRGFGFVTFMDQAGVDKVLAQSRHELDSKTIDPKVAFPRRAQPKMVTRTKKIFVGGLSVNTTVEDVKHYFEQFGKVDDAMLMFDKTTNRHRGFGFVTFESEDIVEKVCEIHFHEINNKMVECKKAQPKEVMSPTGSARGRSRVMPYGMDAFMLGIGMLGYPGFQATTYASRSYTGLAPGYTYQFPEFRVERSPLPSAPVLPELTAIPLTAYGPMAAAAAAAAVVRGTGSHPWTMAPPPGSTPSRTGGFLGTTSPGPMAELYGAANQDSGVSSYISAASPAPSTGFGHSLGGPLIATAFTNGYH

First: B1
Second: B2
The binding signal of the first is lower: 0.476 enrichment R for the first, 0.65 enrichment R for the second.

First: B3
Second: B4
The binding signal of the first is lower: 0.421 enrichment R for the first, 0.663 enrichment R for the second.

Compared with B5, B6 is higher in binding signal: 0.299 enrichment R for the first, 1.2 enrichment R for the second.

First: B7
Second: B8
The binding signal of the first is lower: 1.04 enrichment R for the first, 1.35 enrichment R for the second.

First: B9
Second: B10
The binding signal of the first is higher: 1.87 enrichment R for the first, 1.17 enrichment R for the second.

Going from B11 to B12, the binding signal rises from 1.39 enrichment R to 1.76 enrichment R.

First: B13
Second: B14
The binding signal of the first is lower: 0.241 enrichment R for the first, 6.63 enrichment R for the second.

Compared with B15, B16 is lower in binding signal: 0.502 enrichment R for the first, 0.323 enrichment R for the second.

Compared with B17, B18 is lower in binding signal: 1.36 enrichment R for the first, 0.46 enrichment R for the second.

First: B19
Second: B20
The binding signal of the first is lower: 0.635 enrichment R for the first, 1.44 enrichment R for the second.

First: B21
Second: B22
The binding signal of the first is higher: 2.78 enrichment R for the first, 0.269 enrichment R for the second.
